PubChem BioAssay AID686979 (National Center for Advancing Translational Sciences (NCATS), 2013)
The campaign covered roughly 420,000 compounds. About 50,000 (12%) were called active. Inconclusive results, whose numbers are uncertain, are shown with a selection of clear calls. The call rests on the fitted dose curve; in most records, active means well fitted inhibition curve with a large enough effect; inconclusive means small, poorly fitted or top-dose-only effect; inactive means flat fitted curve, though single readings scatter. Potencies of inconclusive entries are left out as doubtful fits.

assay: qHTS for Inhibitors of human tyrosyl-DNA phosphodiesterase 1 (TDP1): qHTS in cells in presence of CPT; conditions: chicken DT40 Tdp1-/-;hTDP1 cells + 20 nM CPT, ATP luminescence, 48 h; activity change, negative = growth inhibition: at 46.2 µM (top of the series) unless noted; further: nearly all actives have a fitted effect of over 55% in size
Procedure, shortened: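 Chicken DT40 Tdp1-/- cells stably complemented with human TDP1 were seeded at 400 cells/well in medium containing 20 nM camptothecin, exposed to pin-transferred compounds, and grown at 37 °C for at least 48 hr. Viability was read as ATP luminescence.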
On the % scale 0 is the no-effect control and ±100 the full control effect; potency means the concentration at half of the fitted maximal effect; tags describe the fitted curve by direction and shape.

| Structure (SMILES) | activity change, negative = growth inhibition | Potency |
| --- | --- | --- |
| O=C(CCC(=O)N1C[C@H]2C[C@@H](C1)c1cccc(=O)n1C2)NCc1cccc(C(F)(F)F)c1 | inactive: -17.3% | – |
| COc1ccc(CNCCc2ccc(Cl)cc2Cl)cc1 | inactive: -1.18% | – |
| C/C(CC(c1ccccc1)c1c(O)c2ccccc2oc1=O)=N\NC(N)=S (configuration not stated) | – | inconclusive [inhibitor, single point] |
| O=C1CN(O)C(c2ccccc2Cl)=c2cc(Br)ccc2=N1 | – | inconclusive [inhibitor, partial curve] |
| [Cl][Pt+2][Cl].[NH-]C1CCCCC1[NH-] (configuration not stated) | – | active: 2.31 µM |
| CCC(=O)OC1(c2ccccc2)CCN(C)CC1C (configuration not stated) | – | inconclusive [inhibitor, single point] |
| CN(Cc1ccccc1)C(=O)c1ccc(NC(=O)C2CCN(C(=O)OC(C)(C)C)CC2)cc1 | – | active: 23.1 µM |
| O=C(CNC(=O)c1cccc(Cl)c1)Nc1ccc(Br)cc1C(=O)c1ccccc1 | – | inconclusive [inhibitor, single point] |
| Cc1cc(C)cc(NC2=NCCCS2)c1 | – | inconclusive [inhibitor, full curve, poor fit] |
| CCOC(=O)Cn1cc(C(=O)c2ccccc2F)c2ccccc21 | – | inconclusive [inhibitor, single point] |
| Cn1cc(C=C2C(=O)NC(=O)NC2=O)c2ccccc21 | inactive: 6.04% | – |
| CCC(=O)OC1(c2ccccc2)C(C)CN(C)CC1C (configuration not stated) | inactive: -2.44% | – |
| CC(C)OP(=O)(OC(C)C)C(Nc1ccccc1)c1cccc2c1OCO2 (configuration not stated) | – | inconclusive [inhibitor, single point] |
| COCCCn1c(-c2ccc(OC)cc2)cc(C(=O)NC2CCCCCCC2)c1C | – | active: 20.6 µM |
| Cc1noc(C)c1COc1ccc(C(=O)NCC2(N(C)C)CCCCC2)cc1 | inactive: -11.9% | – |
| COc1cccc(C(C(=O)NCc2ccco2)N(Cc2ccco2)C(=O)Cn2nnc3ccccc32)c1 (configuration not stated) | – | inconclusive [inhibitor, single point] |
| CC1CC2(C)C(=CC1=O)CCC1C3CCC(C)(O)C3(C)CC3OC312 (configuration not stated) | – | inconclusive [inhibitor, single point] |
| CCOC(=O)C1=C(N)Oc2cc(C)oc(=O)c2C12C(=O)N1c3c(cccc32)C(C)CC1(C)C (configuration not stated) | inactive: -10.6% | – |
| CC(NC(=O)CNC(=S)N(Cc1ccccc1)Cc1cccnc1)c1ccccc1 (configuration not stated) | – | inconclusive [inhibitor, single point] |
| COc1ccc(-n2nnnc2C(c2cccs2)N2CCC3(CC2)C(=O)NCN3c2ccccc2)cc1 (configuration not stated) | – | inconclusive [inhibitor, single point] |
| CCOc1ccc(C(=O)Nc2ccc3nc(SCC(=O)N4CCCC4)sc3c2)cc1 | – | inconclusive [inhibitor, partial curve] |
| CC(=O)NCC1=C(c2ccc3ccccc3c2)C[C@@H]2CC[C@H]1N2Cc1ccco1 | – | inconclusive [inhibitor, single point] |
| CCOC(=O)[C@]12Cc3cc(C)ccc3[C@H]1N(Cc1ccccc1)C(=O)c1cc(F)c(F)cc12 | – | active: 20.6 µM |
| Clc1cccc(C2NCc3ccccc3-n3cccc32)c1 (configuration not stated) | – | inconclusive [inhibitor, single point] |

| Structure (SMILES) | activity change, negative = growth inhibition | Potency |
| --- | --- | --- |
| Cc1ccccc1C1=NCC(=O)N(CC(=O)N2CCCCC2)c2sc(C)c(C)c21 | inactive: -9.2% | – |
| CC1CCN(c2cc(Br)c([N+](=O)[O-])cc2F)CC1 | – | inconclusive [inhibitor, single point] |
| C(=C\c1ccccc1)/CN1CCN(CCOC(c2ccccc2)c2ccccc2)CC1 | – | active: 3.66 µM |
| CCOP(=O)(OCC)c1nc(-c2cccc3ccccc23)oc1N1CCOCC1 | – | inconclusive [inhibitor, partial curve] |
| CC(O)C(C)OC(=O)[C@@H]1C[C@@H]2c3cccc4c3c(cn4C(C)C)C[C@H]2N(C)C1 (some centres not stated) | – | inconclusive [inhibitor, full curve, poor fit] |
| C=C[C@@H]1C[C@@]1(C)[C@@H](NP(=O)(c1ccccc1)c1ccccc1)c1ccccc1 | – | inconclusive [inhibitor, single point] |
| CCc1cc2c(s1)-n1c(C)nnc1CN=C2c1ccccc1Cl | – | inconclusive [inhibitor, single point] |
| CCN(CC)c1ccc(N=Cc2c(O)n(CCC3=CCCCC3)c(=O)[nH]c2=O)cc1 | – | inconclusive [inhibitor, single point] |
| CCOc1c(Cl)cc(CNCCc2c[nH]c3ccccc23)cc1OC | – | inconclusive [inhibitor, single point] |
| N#C/C=C/C#N | – | inconclusive [inhibitor, single point] |
| C[C@H]1COc2cc(N3CCN(C)CC3)ccc2S(=O)(=O)N1 | inactive: 0.742% | – |
| O=S(=O)(c1cc(Cl)cc(Cl)c1)N1Cc2cc(-c3ccccc3)ccc2-n2nncc2C1 | – | inconclusive [inhibitor, single point] |
| CC(C)(C)C(=O)N1Cc2cnnn2-c2ccccc2C1C#N (configuration not stated) | inactive: -0.148% | – |
| c1nc2nc3c(c(N4CCNCC4)n2n1)CCCC3 | inactive: 2.33% | – |
| C=CCn1c(O)c(C(CC)=NCCCO)c(=O)[nH]c1=O | inactive: -5.92% | – |
| Cc1ccc(NC(=O)C2CCCN(C(=O)c3cnn(-c4ccccc4)c3-n3cccc3)C2)cc1 (configuration not stated) | – | active: 14.6 µM |
| CCC(C)n1c(O)c(C=NCC2CCCO2)c(=O)[nH]c1=S (configuration not stated) | inactive: 5.94% | – |
| O[C@H]1C2CCC1C(N1CCCCC1)CC2 (some centres not stated) | inactive: 11% | – |
| COc1ccc(CN2CC3CC(C2)c2cccc(=O)n2C3)cc1OC (configuration not stated) | inconclusive: -10.1% [inhibitor] | – |
| COc1cc2c(cc1OC)-c1c(OC)c(OC)cc3c1C(C2)N(C)CC3 (configuration not stated) | – | inconclusive [inhibitor, single point] |
| CCN1CCN(c2cn[nH]c(=O)c2Cl)CC1 | inactive: 2.22% | – |
| OC[C@@H]1CN(Cc2ccncc2)C[C@H](n2cnc3c(N4CCN(c5ccccc5)CC4)ncnc32)O1 | – | active: 2.06 µM |
| COc1cccc(Oc2c(C)oc3cc(OC(=O)N(C)C)ccc3c2=O)c1 | – | inconclusive [inhibitor, single point] |
